# Assay results taken from PubChem BioAssay AID488969 (Vanderbilt High Throughput Screening Facility, 2010).
# The full ranking holds about 110,000 compounds; the median of “z-score” is about -0.1, and the highest 2% start at about 2. The list shows a part of the results.
# Target: Metabotropic glutamate receptor 8 (Rattus norvegicus) (UniProt P70579)
# Test: mGluR8 Gi/Go-coupled signaling modulation – cell-based, rat, thallium flux, HTS, primary screen (AID 488969)
# Conditions: HEK293 rat mGluR8, GIRK (G protein-gated inwardly rectifying potassium channel) thallium flux, FluoZin2; at 10 µM; stronger effect = higher value; submaximal glutamate (EC20) added with thallium
# Chain of UniProt P70579 (P70579 whole entry, looked up): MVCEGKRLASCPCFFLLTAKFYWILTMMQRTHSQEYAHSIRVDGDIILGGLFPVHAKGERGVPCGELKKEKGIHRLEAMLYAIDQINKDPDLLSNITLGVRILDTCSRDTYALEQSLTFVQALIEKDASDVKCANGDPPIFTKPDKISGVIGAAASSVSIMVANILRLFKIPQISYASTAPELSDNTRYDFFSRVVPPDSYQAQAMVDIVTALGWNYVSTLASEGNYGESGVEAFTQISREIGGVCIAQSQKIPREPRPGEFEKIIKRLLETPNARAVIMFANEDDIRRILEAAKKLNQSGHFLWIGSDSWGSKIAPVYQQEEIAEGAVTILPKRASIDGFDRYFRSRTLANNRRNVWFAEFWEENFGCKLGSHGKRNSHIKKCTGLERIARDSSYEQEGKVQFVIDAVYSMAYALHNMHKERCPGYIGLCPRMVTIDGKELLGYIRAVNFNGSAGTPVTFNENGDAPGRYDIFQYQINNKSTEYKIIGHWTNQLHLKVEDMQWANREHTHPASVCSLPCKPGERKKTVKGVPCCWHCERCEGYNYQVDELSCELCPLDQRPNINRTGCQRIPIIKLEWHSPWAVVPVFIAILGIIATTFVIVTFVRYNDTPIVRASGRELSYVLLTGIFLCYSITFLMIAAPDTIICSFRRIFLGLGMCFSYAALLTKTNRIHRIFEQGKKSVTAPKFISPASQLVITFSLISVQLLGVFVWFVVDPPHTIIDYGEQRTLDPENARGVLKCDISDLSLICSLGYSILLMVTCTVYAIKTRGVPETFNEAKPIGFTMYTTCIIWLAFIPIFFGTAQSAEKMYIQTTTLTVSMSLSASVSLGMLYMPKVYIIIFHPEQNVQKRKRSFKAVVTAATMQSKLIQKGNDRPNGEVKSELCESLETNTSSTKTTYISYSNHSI
row,Compound,z-score
1,CC(C)NC(=O)c1ccc(COCC(F)(F)C(F)F)cc1,0.168
2,Fc1cc2nccnc2cc1N1CCSCC1,1.89
3,Cc1cccc(Nc2nc(N)nc(CN3CCN(c4ccccc4)CC3)n2)c1,-0.569
4,CC(C)C(NC(=O)c1ccc(F)cc1)C(=O)OCC(=O)N1CC(=O)Nc2ccccc21 (stereo not given),0.0927
5,O=C1c2ccccc2C(=O)N1CCCCON1C(=O)c2ccccc2C1=O,0.763
6,Cc1ccc(CN(C#N)c2nc(C)cc(C)n2)cc1,-0.467
7,Cc1nn(-c2nc3ccccc3s2)c(N)c1Sc1ccc(F)cc1,-1.37
8,COC(=O)CN1C(=O)C(O)(CC(=O)c2ccc(C)o2)c2ccccc21 (stereo not given),-0.302
9,c1cn2cc(-c3ccc4c(c3)OCO4)nc2s1,0.0768
10,COc1ccccc1CNC(=O)CN(c1ccc(C)cc1)S(=O)(=O)c1c(C)nn(C)c1C,-0.65
11,O=C(Cc1cccs1)N1CCC(c2nc3c(nnn3Cc3ccc(F)cc3)c(=O)[nH]2)CC1,-0.331
12,CCSc1nnc2n(N)c(=O)c3ccccc3n12,-0.443
13,COC(=O)c1ccc(OCC(O)CN2C(=O)NC(C)(C)C2=O)cc1 (stereo not given),-0.331
14,COc1ccc(CCNS(=O)(=O)c2ccc3c(c2)OCCO3)cc1,0.251
15,CCC(C)(C)NC(=O)C(c1ccco1)N(C(=O)CNC(=O)c1cccs1)c1cccnc1 (stereo not given),0.113
16,O=C1C2C3C=CC(CC3)C2C(=O)N1c1ccc2c(c1)OCO2 (stereo not given),-0.00168
17,CC1(C)N=C(SCC(=O)Nc2ccc(Cl)cc2Cl)C(c2ccccc2)=N1,-0.0911
18,C=CCn1c(CC(=O)OC)csc1=Nc1ccc(C(C)=O)cc1,0.286
19,CN(C)CCNCc1ccc(OC2CCCC2)cc1,-0.485
20,CCOc1ccc2nc(NC(=O)c3cccc(-c4cc5ccccc5oc4=O)c3)sc2c1,-0.225
21,CCOC(=O)Nc1ccc([N+](=O)[O-])cc1OC,-0.0696
22,CSc1ccccc1C(=O)NC1CCCC1,0.271
23,Cc1ccc(S(=O)(=O)N2CCCOC2)cc1,-0.142
24,O=C1c2cccnc2Nc2ccccc2N1CCCF,-0.0175

row,Compound,z-score
1,COC(=O)/C=C1/SC(=NC(=O)c2ccccc2)NC1=O,-0.201
2,Cc1ccc(S(=O)(=O)Nc2ccccc2CNc2cccc(C)n2)cc1,-0.278
3,O=C(NC1CCCC1)C(c1ccsc1)N(C(=O)Cc1cccs1)c1ccc(F)cc1 (stereo not given),0.287
4,O=C(Nc1ccc2c(c1)OCO2)C1CC(c2ccc(F)cc2)=NO1 (stereo not given),0.0283
5,CC1(C)CC(=O)C2=C(C1)N(Cc1ccco1)C(=O)C2(O)C(F)(F)F (stereo not given),0.906
6,FC(F)(F)c1cccc(OCCOCCn2cncn2)c1,0.491
7,Cc1ccc(C(=O)Nc2nc(=O)n(C(=O)c3ccccc3C)s2)cc1,-2.23
8,CCOC(=O)c1nn(-c2ccc(F)cc2)c2nc(Nc3ccccc3)cc(=O)n12,-0.123
9,O=C(/C=C/c1ccc([N+](=O)[O-])cc1)NCc1cccnc1,-0.501
10,CCCNC(=O)C1CC(=O)N(c2ccc(OCC(=O)Nc3cccc(C)c3C)cc2)C1 (stereo not given),0.558
11,Cc1ccc(C)c(NC(=S)NC2CC3CCC(C2)N3Cc2ccco2)c1 (stereo not given),0.33
12,CCCc1cc(=O)[nH]c(SCC(=O)N(CC)C2CCS(=O)(=O)C2)n1 (stereo not given),-0.258
13,O=c1c(-c2ccc(Br)cc2)coc2c(CN3CCOCC3)c(O)ccc12,-0.5
14,CCN1CCCC1Cn1cnc2c([nH]c3cc(OC)ccc32)c1=O (stereo not given),-0.271
15,CC(C)Cn1c(-c2ccc(Cl)cc2)cnc1SCC(=O)N1CCOCC1,-0.0871
16,CN1CCc2cc3c(c4c2C1CC41CCC(=NO)CC1)OCO3 (stereo not given),0.139
17,Cc1ccnc(NC(=S)NC(=O)/C=C/c2ccc(Cl)cc2)c1,-0.596
18,CCn1c(=O)c(C(=O)NCCN2CCCCC2)c(O)c2ccccc21,0.12
19,O=C(O)c1cnc(-c2ccccc2)nc1Sc1ccc(Cl)cc1Cl,-0.66
20,Cc1cc2oc(=O)cc(Cn3nnc(-c4ccc(Cl)cc4)n3)c2cc1C(C)C,-0.447
21,C/C(CC(=O)Nc1ccc(N(C)C)cc1)=N\NC(=O)c1cnccn1,-0.137
22,COc1cccc(CNc2ccc(F)c(Cl)c2)c1,-0.0514
23,Cc1cc2c(cc(C(=O)N3CCC(C(=O)N4CCCC4)CC3)n2Cc2c(F)cccc2Cl)o1,-0.904
24,O=C(Nc1nnc(Cc2c[nH]c3ccccc23)s1)c1ccc(Cl)cc1Cl,-0.0402

row,Compound,z-score
1,CCc1ccc(-c2c(C)sc(NC(=O)C3CCC3)c2C#N)cc1,-0.0846
2,CCC(=O)Oc1ccc(C(=O)Nc2ccc3c(c2)C(=O)N(C2CCCCC2)C3=O)cc1,-0.504
3,O=C(COc1cccc(C(F)(F)F)c1)Nc1ccc(S(=O)(=O)N2CCCC2)cc1,-0.216
4,COc1ccc(C(CC(=O)NCCN2CCOCC2)NS(=O)(=O)c2ccc(C)cc2)cc1 (stereo not given),-0.382
5,O=C(Nc1ccccc1)N1CCN(c2nc3ccccc3s2)CC1,-1.2
6,CCOCCOc1nc2c(c(=O)n(C)c(=O)n2C)n1CCc1ccccc1,-0.18
7,COc1ccc(CSC2=NCCN2)cc1Cl,0.41
8,COc1cc(S(=O)(=O)NC2CCCCC2C)ccc1Cl (stereo not given),-0.903
9,NC(=O)C1CCN(C(=O)COc2cccc3ccccc23)CC1,0.0874
10,O=c1cc(Nc2ccc3c(c2)OCCO3)[nH]c(=O)n1-c1ccc(Br)cc1,0.43
11,CCOC(=O)C1=C(C)Nc2ncnn2C1c1c[nH]c2ccccc12 (stereo not given),0.181
12,CN1C(=O)CC2(CC(=O)N(Cc3ccccc3)C2)C1=O (stereo not given),-0.0247
13,CCc1cccc2c(C(=O)CSc3nnc(-c4ccoc4C)n3C)c[nH]c12,-0.805
14,Cn1c(/N=C/c2c[nH]c3ccccc23)nc2ccccc21,1.1
15,COC(=O)c1ccc(/C=C/C(=O)c2ccc(OC)c(OC)c2)cc1,-0.225
16,CC(C)CNC(=O)COC(=O)CNC(=O)c1cc(Cl)cc([N+](=O)[O-])c1,-0.284
17,CCOc1cc(/C=C(/C#N)C(=O)Nc2ccc(O)cc2)cc(Br)c1O,-0.253
18,O=C(c1cn(-c2ccccc2)nc1-c1cccs1)N1CCN(c2ccc(F)cc2)CC1,0.133
19,O=C(CN1CCOc2ccccc21)N1CCN(c2cccc(Cl)c2)CC1,-0.327
20,CCOc1cc(N2CCOCC2)c(OCC)cc1NC(=O)COC(=O)c1cc(C)cc(C)c1,-0.471
21,CC(C)N1C(=S)SC(C)(C)C1n1oc(=O)n(-c2ccc(Cl)c(Cl)c2)c1=O (stereo not given),-0.253
22,COc1cccc(OC)c1C(=O)Nc1ccc(N2CCCCC2)cc1,1.15
